Values marked as one replicate rest on one cluster of the flow cell; about a third of the high ones do not repeat.
System: ATP
Assay: switch fluorescence ratio, 500 uM ATP over buffer (Cy3 cluster intensity, sum of 5 cycles each) (fold (ratio)); higher = stronger signal-on switching upon ATP binding; sequences stand for … in TCGTCGGCAGCGTCAGATGTGTATAAGAGACAGTTTTTTTTTTTTTTTTTTTTTTTTT…TC
Conditions: aptamer strand: ATP DNA aptamer (quencher-CACCTGGGGGAGTATTGCGGAGGAAGG + anchor), 100 nM annealed; ATP concentration: 500 uM; one replicate
In short: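 After annealing to 100 nM quencher-labelled ATP aptamer, Cy3-labelled switching-strand clusters on a modified Illumina MiSeq flow-cell were imaged in selection buffer. A second image followed after 15 min with 500 uM ATP at 22 °C, and five such buffer/ATP cycles were done, each separated by NaOH stripping and re-annealing. The fluorescence ratio, averaged per switch-domain sequence, is summed target-cycle over summed buffer-cycle Cy3 intensity per cluster, with clusters outside 100-1000 RFU excluded.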
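Also: ATP exposure 15 min at 22 °C before imaging.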

Sequence | switch fluorescence ratio
AAATGAAAGG | 1
GCGCAAGTCA | 1.03
CCAAAAGTCA | 1.06
ACCTGGGGG | 0.987
ACAAGTGGTT | 1.03
CAGCGGGTGG | 1.05
ATCAATGCTC | 1.71
GGGAGCGGGG | 1.02
AGTCATAGAA | 1.02
ATAACCGGCT | 1.18
GCCGCTAGGG | 1.04
AAAAGCCTTT | 1.04
GGAAAACGAT | 0.976
AGAATGTAGC | 0.946
AGGATTTGCA | 1.03
TATTCTGGGG | 0.988
AGTTCTGGGG | 1.02
GCCCCCGATG | 1.46
AGTCAAGGT | 1.02
CAACGGGGCC | 0.95
ATCCGAGTAA | 1.53
ATTGGAGGT | 1

Sequence | switch fluorescence ratio
TAAAGGGTGA | 1.04
TATATCGGCG | 0.957
AGGAAAGGGT | 0.936
GCACCTAACG | 1.34
CGCAGTTCTG | 1.14
TGCTAGGCGC | 0.944
TAGCGCATGC | 1.05
GGGGCTACGC | 1.03
GAGTTGCAAC | 1.05
GGGCTGTACG | 1.03
AGCGTACATC | 1.12
ACGCGGCCGT | 1.01
TCGCCTGGCT | 1.01
AAAAGGATCC | 1.06
GGGTATCTGG | 0.912
GGGCCCGAGT | 0.999
GGTTCTGCTT | 0.988
TGAAGCCACG | 1.05
ATTGTTCCTG | 0.987
GGAGAATGTT | 0.995
TGTGTCAAGG | 0.99
AGCTATTGAA | 1.02

Sequence | switch fluorescence ratio
GCTGGATTTT | 1.01
AATGTCATTG | 1
GCCGCAGCTT | 1.28
AACGGCCTGG | 1.01
GGGGATAATA | 1.01
GCTACGAGGT | 1.07
GCAACCCTGG | 1.29
GTGATGCGG | 1.02
TCAGGAACT | 1.05
TCTAAGCGTA | 1
GAAGCAAGAA | 2.33
AACTGAATTT | 0.994
AGCGACGTTG | 0.97
ATCCGATACC | 1.32
ATATAAGGCG | 1.03
CTCAAGAGTT | 0.928
GGTATATCAT | 0.966
GTTGTGAGTG | 0.978
GTAAATCGGT | 1.04
GGAAGTCGAC | 1.07
TAGCCTTGTG | 1
AGATGACCTG | 0.991

Sequence | switch fluorescence ratio
TGCAAGAAAT | 1.68
TTGTGAAACT | 5.41
CTCGAAGGCT | 0.952
GCACCGTGGC | 1.02
ATCAGTTTCG | 0.963
CATTGTCAAT | 1.05
TCGGTACAAT | 1.06
CGCATGGGT | 1.03
CTGCTACAAC | 1.39
TGGTCGGCTT | 1.06
CGCGTGGGGA | 1.02
TGCTCTAAGT | 0.962
TTTCTTAATG | 0.985
GGGAAACCGT | 0.982
AGGTAACCCC | 1.11
TCGGTAGTCG | 1.04
TACCGTCATT | 1
TATTATTGAA | 0.997
GCCCCGTTGA | 1.04

From the supplement of paper PMC10126150
